Experimental data: PMC4441479
These are yes or no findings as the source states them, for the method shown. In cells and extracts the contact can be indirect. Some results given as binding are weak or reduced against the parent protein; the word gives no strength. For some assays here: Sequences can lack the tags named with a protein.

Amino acid sequences for entries named in this document (tags omitted). A change or cut given only in a name is not applied to a line headed by its entry. Chains listed by the source or under a name are the forms on record and can include a tag or linker. Residues count along the entry.
UniProt Q9UN81: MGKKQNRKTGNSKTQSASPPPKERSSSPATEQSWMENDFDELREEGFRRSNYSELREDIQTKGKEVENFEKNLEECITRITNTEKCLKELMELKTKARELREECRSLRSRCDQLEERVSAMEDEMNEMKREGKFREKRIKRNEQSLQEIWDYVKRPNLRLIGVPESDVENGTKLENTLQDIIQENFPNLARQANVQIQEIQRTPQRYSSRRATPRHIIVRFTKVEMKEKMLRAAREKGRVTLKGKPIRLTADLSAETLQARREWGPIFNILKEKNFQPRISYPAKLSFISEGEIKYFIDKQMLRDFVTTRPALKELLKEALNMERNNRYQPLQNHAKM
UniProt Q7Z2W4: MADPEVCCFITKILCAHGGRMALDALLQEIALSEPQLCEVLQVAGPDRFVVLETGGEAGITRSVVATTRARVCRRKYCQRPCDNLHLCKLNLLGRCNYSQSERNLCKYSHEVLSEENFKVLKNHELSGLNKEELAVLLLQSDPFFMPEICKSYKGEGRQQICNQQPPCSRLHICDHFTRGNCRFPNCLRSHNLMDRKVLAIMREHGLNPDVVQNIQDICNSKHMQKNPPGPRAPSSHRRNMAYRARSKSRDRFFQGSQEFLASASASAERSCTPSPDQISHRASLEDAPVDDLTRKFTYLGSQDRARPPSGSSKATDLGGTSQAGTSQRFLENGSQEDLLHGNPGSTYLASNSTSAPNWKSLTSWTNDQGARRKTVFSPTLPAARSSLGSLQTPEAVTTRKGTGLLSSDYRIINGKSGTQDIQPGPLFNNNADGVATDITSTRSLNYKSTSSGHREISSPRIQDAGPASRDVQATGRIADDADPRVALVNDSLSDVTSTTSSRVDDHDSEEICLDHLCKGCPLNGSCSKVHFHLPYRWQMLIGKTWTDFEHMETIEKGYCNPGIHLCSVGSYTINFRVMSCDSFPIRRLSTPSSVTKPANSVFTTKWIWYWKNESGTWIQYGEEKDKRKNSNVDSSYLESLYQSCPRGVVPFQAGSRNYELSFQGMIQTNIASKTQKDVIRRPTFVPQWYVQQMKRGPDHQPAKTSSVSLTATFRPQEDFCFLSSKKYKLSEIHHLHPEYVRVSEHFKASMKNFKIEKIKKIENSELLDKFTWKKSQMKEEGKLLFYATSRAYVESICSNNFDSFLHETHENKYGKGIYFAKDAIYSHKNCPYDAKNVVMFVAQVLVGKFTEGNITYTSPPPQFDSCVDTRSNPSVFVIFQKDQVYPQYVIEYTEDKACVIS
HA-ZAP 1–256: residues 1-256 of Q7Z2W4
V5-TEV-ZAP-S (Q7Z2W4-2, form named): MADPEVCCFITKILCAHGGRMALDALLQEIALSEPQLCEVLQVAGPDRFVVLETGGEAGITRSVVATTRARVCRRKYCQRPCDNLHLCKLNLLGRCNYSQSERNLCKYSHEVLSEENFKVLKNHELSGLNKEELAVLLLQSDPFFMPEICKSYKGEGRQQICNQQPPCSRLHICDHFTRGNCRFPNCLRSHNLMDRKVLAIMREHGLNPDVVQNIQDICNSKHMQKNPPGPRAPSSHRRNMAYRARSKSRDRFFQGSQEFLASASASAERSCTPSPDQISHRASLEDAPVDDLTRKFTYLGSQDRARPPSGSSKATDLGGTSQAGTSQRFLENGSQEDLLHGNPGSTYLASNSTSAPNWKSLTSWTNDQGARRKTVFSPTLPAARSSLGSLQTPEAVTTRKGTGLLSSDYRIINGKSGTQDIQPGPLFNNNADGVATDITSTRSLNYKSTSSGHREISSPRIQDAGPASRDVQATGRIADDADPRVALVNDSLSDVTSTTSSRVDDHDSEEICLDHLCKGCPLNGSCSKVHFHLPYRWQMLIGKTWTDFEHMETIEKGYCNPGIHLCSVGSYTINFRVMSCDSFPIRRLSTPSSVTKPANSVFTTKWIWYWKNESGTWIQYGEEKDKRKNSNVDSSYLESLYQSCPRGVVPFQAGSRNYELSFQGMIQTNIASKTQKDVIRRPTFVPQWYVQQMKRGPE
UniProt Q96AZ6: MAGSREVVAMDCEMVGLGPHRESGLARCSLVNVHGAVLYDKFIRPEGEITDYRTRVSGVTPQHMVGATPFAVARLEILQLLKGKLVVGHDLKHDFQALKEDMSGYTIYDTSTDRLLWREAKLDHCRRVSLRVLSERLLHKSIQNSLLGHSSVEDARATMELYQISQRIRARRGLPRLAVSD
UniProt P30153: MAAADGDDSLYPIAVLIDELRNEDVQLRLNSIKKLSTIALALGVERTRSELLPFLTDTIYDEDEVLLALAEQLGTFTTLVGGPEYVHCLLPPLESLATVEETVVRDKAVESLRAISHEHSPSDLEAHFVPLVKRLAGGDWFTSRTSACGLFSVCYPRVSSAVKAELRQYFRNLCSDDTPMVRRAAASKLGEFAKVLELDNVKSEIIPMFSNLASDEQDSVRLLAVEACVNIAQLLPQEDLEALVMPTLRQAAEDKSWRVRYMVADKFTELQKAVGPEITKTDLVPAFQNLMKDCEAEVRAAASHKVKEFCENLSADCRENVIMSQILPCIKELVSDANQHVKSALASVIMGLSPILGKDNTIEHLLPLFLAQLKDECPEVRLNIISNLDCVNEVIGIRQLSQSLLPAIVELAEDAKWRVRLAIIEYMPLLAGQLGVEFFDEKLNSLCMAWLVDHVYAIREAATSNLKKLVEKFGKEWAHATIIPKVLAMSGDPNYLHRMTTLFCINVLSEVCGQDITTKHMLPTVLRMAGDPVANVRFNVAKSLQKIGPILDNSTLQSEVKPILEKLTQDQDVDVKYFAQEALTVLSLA
UniProt Q14258: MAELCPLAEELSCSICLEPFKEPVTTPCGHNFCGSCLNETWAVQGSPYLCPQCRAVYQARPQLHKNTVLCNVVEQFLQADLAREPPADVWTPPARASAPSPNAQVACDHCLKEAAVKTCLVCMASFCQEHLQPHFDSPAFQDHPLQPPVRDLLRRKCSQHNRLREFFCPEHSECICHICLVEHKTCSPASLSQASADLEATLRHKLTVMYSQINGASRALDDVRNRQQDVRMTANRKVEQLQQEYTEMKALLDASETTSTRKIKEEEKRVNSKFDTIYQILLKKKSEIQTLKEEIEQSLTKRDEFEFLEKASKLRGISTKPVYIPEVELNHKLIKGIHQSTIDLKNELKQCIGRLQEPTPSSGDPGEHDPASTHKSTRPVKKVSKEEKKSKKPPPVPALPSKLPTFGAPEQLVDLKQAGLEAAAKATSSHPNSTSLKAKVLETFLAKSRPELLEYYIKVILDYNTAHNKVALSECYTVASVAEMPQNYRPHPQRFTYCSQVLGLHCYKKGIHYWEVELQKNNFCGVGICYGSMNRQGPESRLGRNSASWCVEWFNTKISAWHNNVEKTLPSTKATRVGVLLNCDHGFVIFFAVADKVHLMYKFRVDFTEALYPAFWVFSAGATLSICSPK
UniProt Q92526: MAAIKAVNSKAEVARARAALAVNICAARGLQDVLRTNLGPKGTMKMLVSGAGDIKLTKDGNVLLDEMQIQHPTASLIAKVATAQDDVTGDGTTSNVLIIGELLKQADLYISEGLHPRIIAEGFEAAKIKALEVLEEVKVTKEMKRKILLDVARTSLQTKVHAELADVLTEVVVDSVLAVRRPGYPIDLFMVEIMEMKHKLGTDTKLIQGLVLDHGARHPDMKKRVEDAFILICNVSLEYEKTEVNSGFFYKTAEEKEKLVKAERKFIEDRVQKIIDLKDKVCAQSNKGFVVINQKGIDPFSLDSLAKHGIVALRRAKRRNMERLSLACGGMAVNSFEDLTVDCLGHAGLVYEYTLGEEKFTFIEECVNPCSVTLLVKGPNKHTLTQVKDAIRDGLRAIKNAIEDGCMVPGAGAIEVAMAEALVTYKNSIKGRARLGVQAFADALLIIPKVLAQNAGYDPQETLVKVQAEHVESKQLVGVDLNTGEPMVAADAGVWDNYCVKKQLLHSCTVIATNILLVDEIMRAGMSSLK
UniProt P50990: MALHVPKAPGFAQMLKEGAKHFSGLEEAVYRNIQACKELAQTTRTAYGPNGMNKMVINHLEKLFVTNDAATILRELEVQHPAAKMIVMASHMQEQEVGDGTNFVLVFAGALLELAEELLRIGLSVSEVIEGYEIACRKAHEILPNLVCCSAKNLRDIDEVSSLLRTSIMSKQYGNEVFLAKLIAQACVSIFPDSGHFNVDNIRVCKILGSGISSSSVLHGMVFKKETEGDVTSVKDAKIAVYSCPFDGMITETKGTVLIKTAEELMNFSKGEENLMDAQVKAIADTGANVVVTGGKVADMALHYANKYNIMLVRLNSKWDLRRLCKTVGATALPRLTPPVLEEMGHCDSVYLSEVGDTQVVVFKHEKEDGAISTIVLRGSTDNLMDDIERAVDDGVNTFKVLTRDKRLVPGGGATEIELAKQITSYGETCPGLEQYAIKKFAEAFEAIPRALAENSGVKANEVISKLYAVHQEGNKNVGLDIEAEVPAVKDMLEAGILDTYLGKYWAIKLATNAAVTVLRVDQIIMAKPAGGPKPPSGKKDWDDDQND
UniProt Q9NQT4: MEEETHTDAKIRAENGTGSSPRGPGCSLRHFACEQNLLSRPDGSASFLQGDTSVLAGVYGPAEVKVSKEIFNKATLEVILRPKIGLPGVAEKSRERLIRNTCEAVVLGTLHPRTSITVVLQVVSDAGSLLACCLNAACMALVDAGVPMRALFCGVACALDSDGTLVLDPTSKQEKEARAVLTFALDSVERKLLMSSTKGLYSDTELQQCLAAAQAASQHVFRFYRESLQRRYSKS
UniProt P09874: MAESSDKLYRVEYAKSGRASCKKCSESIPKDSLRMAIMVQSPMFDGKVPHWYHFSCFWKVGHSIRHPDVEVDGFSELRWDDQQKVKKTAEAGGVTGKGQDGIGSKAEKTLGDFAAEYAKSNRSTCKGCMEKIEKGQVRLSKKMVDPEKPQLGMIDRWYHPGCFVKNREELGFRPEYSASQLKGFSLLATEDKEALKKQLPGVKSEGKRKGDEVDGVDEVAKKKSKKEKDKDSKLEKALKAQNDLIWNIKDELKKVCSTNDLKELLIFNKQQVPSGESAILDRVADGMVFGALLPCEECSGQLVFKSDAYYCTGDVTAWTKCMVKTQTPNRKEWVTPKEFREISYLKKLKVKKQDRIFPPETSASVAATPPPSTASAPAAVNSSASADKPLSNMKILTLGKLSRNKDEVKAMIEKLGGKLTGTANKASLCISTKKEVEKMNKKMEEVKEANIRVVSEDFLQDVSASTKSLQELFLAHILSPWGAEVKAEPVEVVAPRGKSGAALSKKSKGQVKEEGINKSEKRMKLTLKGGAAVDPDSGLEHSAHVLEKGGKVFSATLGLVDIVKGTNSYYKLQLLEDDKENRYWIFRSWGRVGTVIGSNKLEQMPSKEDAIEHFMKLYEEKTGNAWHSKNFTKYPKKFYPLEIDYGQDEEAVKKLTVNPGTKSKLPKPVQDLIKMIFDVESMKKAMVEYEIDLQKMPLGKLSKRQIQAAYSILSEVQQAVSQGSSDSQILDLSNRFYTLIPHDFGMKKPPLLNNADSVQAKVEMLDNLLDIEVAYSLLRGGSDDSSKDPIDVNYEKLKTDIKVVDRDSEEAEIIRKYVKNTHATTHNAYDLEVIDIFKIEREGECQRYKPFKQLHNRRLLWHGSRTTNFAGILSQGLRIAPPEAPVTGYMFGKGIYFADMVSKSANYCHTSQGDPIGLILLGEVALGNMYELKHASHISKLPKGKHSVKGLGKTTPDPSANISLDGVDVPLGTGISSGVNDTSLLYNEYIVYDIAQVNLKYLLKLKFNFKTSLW

How the values were obtained:
[1] = biological target: L1-RP ORF1p with a tandem FLAG-HA tag fused to its C-terminus, expressed from pc-L1-1FH (human) (UniProt Q9UN81); test: co-IP; pc-L1-1FH (ORF1p-FLAG-HA) expressed in 293T cells with tagged test proteins or with endogenous ZAP; IP of L1 RNP complexes on α-FLAG agarose without RNase; Western blot
[2] = biological target: T1, FLAG-tagged MOV10 (human) (UniProt Q9HCE1); test: co-IP; not told for this result (no figure cited); the sentence follows the co-IPs of ZAP and MOV10 of Fig 4C
T1 sequence: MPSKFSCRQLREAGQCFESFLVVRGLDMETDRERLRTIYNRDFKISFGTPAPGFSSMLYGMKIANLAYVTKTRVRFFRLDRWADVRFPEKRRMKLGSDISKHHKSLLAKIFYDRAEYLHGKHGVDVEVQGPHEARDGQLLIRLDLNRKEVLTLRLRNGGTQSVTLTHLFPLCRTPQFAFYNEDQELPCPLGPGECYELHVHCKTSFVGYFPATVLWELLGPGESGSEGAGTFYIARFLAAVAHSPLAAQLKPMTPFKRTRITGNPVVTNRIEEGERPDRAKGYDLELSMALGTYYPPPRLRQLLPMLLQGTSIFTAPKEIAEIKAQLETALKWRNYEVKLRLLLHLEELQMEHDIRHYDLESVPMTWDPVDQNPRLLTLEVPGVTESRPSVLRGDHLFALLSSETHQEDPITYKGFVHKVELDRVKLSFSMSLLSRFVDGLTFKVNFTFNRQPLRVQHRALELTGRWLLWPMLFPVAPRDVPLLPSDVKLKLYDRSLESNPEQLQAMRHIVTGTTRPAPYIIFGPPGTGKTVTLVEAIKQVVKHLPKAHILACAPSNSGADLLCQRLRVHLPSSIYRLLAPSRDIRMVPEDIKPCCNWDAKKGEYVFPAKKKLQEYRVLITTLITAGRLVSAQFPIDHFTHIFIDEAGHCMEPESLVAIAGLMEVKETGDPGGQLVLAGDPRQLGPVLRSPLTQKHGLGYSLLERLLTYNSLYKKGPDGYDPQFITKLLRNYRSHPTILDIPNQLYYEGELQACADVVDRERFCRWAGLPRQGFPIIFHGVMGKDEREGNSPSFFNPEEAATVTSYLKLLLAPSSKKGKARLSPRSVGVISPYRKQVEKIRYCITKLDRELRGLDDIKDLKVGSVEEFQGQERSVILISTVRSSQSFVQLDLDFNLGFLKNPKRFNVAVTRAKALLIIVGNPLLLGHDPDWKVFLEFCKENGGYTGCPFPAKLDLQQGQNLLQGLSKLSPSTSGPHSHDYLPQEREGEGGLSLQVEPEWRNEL

[3] = biological target: T1, FLAG-tagged MOV10 (human); test: co-IP; HA-ZAP-L with FLAG-tagged MOV10; IP on α-FLAG agarose, also in the presence of RNase
[4] = biological target: L1-RP ORF1p with a tandem FLAG-HA tag fused to its C-terminus, expressed from pc-L1-1FH (human) (UniProt Q9UN81); test: co-IP; as a1, IP reaction in the presence of 50 μg/ml RNase
[5] = biological target: ZAP-L-FL (FLAG-tagged ZAP-L) (human) (UniProt Q7Z2W4); test: co-IP; ZAP-L-FL cotransfected with tagged test proteins in 293T (or endogenous MOV10); IP on α-FLAG agarose in the presence or absence of RNase (legend: 50 μg/ml; methods: 25 μg/ml RNase HC and 25 μg/ml RNaseA); Western blot
[6] = biological target: ZAP-L-FL (FLAG-tagged ZAP-L) (human) (UniProt Q7Z2W4); test: co-IP; ZAP-L-FL and pc-L1-RP (untagged ORF1p) expressed in 293T cells; IP by the FLAG tag of ZAP-L-FL

| Substance | binding [5] | also measured |
| --- | --- | --- |
| HA-ZAP 1–256 (from UniProt Q7Z2W4-1 1-256) (domain or fragment) | – | binding [1]: no binding; binding [2]: no binding |
| HA-ZAP-L (from UniProt Q7Z2W4-1 1-902) | – | binding [1]: binds; binding [3]: binds; binding [4]: no binding (condition: with RNase) |
| Myc-USP7 (from UniProt Q93009-1 1-1102) | binds | – |
| USP9X-V5 (pDest51-USP9X-V5) (from UniProt Q93008-3 1-2570) | binds | – |
| V5-TEV-ISG20 (from UniProt Q96AZ6 1-181) | binds weakly | – |
| V5-TEV-ZAP-S (from UniProt Q7Z2W4-2 1-699) | – | binding [1]: binds; binding [4]: no binding (condition: with 50 μg/ml RNase) |
| V5-TEV-tagged PPP2CA (from UniProt P67775-1 1-309) | binds | – |
| V5-TEV-tagged PPP2R1A (from UniProt P30153 1-589) | binds | – |
| V5-TEV-tagged TRIM25 (from UniProt Q14258 1-630) | binds | – |
| V5-tagged CCT6B (from UniProt Q92526 1-530) | no binding | – |
| V5-tagged CCT8 (from UniProt P50990 1-548) | no binding | – |
| V5-tagged EXOSC5 (from UniProt Q9NQT4 1-235) | binds weakly | – |
| endogenous full-length ZAP (293T cells) (from UniProt Q7Z2W4-1 1-902) | – | binding [1]: binds; binding [4]: no binding (condition: with RNase) |
| pCDNA3.1-V5-His full-length PARP1 (from UniProt P09874 1-1014) | binds | – |
| untagged ORF1p expressed from construct pc-L1-RP (from UniProt Q9UN81 1-338) | – | binding [6]: binds |
